These are yes or no findings as the source states them, for the method shown. Some entries that bind do so weakly or less than the wild type.
Assays:
Assay in all cases: two-hybrid; ORFs in pGADT7 (AD, prey; strain Y187) or pGBKT7 (BD, bait; strain Y2HGold), pairwise mating; diploids grown 3 days at 30 °C on double-dropout (SDM/-Leu/-Trp/X-α-Gal/AbA) and quadruple-dropout (SDM/-Leu/-Trp/-Ade-His/X-α-Gal/AbA) medium; growth on quadruple dropout read as interaction
[1] = biological target: T1, Beauveria bassiana photolyase Phr1 (B. bassiana) (UniProt J4KQS2)
T1 sequence: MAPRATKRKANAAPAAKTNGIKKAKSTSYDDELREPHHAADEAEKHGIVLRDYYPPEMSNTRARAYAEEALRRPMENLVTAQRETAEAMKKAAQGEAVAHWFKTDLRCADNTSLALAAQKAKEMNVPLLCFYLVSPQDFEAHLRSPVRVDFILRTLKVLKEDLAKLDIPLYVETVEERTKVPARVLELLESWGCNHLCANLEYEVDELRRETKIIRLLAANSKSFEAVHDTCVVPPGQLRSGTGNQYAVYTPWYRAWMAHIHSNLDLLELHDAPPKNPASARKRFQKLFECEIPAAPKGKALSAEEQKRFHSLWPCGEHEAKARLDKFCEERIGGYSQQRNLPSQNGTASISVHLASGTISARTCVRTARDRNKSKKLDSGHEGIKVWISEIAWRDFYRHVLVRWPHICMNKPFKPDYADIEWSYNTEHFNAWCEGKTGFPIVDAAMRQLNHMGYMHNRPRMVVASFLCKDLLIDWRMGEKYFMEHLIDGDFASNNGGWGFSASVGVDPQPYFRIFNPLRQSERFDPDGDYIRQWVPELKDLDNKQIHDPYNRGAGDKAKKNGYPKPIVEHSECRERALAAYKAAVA

[2] = biological target: T2, Beauveria bassiana white collar protein WC1 (B. bassiana) (UniProt J5J1K4)
T2 sequence: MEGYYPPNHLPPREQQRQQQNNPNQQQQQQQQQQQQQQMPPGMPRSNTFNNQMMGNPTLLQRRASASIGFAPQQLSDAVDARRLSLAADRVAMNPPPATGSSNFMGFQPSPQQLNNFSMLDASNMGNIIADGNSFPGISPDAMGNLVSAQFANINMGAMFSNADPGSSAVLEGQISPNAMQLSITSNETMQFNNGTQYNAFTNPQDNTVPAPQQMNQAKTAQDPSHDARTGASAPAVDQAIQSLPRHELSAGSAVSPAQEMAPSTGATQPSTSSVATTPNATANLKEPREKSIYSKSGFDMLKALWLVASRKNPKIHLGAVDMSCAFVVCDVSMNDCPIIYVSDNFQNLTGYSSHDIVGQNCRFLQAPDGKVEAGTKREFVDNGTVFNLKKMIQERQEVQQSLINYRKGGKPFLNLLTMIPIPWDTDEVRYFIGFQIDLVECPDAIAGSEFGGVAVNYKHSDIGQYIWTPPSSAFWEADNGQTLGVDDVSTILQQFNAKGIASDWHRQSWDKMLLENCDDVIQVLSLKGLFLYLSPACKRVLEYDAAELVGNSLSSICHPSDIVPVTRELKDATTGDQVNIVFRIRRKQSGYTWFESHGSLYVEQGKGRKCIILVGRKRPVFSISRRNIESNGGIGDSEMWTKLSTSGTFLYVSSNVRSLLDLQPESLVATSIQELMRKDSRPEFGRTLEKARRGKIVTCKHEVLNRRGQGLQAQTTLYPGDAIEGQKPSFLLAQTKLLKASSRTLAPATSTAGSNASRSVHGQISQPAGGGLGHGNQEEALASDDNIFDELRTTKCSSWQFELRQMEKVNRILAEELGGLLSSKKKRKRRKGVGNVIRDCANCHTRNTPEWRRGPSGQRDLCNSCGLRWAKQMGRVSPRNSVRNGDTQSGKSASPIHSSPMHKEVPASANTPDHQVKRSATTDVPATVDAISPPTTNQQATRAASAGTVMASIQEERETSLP

[3] = biological target: T3, Beauveria bassiana white collar protein WC2 (B. bassiana) (UniProt J5JYA0)
T3 sequence: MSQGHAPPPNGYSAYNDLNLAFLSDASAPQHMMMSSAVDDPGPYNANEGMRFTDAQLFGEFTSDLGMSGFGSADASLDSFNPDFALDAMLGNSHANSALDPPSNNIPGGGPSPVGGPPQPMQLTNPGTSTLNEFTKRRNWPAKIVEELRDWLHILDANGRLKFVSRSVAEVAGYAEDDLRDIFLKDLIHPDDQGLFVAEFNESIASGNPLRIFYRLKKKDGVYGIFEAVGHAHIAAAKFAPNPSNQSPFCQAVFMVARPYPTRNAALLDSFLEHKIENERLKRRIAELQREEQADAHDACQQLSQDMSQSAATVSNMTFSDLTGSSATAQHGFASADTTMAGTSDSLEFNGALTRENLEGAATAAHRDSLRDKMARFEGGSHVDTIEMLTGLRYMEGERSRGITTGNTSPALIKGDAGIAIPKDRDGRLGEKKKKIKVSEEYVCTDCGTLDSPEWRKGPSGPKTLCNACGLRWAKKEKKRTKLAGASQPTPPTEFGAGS

B1: Beauveria bassiana Rad1 (protein, UniProt J4VYF0 1-940)
chain: MSTNNAPQPVKLSLPLEYQQALFQELRSEDELVVLARGLGLMRLVTNLLHSYDAAGNNLIVIVGAEDRENGWIGEALAEHAAISASPKARGLTVVNTDFQSVGAREKMYAAGGIFSITSRILVVDLLTALLSPETITGLIVLHADRIVATSLEAFILRVYRQKNKVGFLKAFADNPDPFTIGFSPLATMMRNLFLKKASLWPRFHVTVAQSLEGKKKAEVIELEVPMTEYMTDIQNAIMECVEISIHELKKGNPGLEMDDWNLDSALLKNFDVIVRRQLDPDWHRVSWKTKQIVNDLTVLRGLLAYVVSYDAVSFLQHLDTIHAAHSPPPGSTRQTQSPWLFLDAAQTLFETARKRVYSASIKQISQEENIDSLRPVLEELPKWSLLAEVLEEIDRDLHFEPHARDDSNGTILIMCSNIDTCRQLRNYLQTMHVKPKVTTKTSDDEDDPHKPSAIFMMRRRLRNYLRWKRQFAVVNASLFTENNKALNSATDSRPGHGGMRGGRAPSNKRRRQRGGGNMAVGMSRAENGSISQFFEKPNEVAELMAEVQITEEEAKQKDEVIADPLDNMEDYYQLYDMQDLVVIHAYDGDQDEHVLEEVRPRYIIMYEPDASFIRRVEVYRSSHNDRNVRVYFLYYGGSVEEQRYLASVRREKDAFTRLIKERASMSLVMTVEPHGIQDPQEAFLRTVNTRIAGGGRLAATAEPPRVVVDVREFRSSLPSLLHGRAMVIVPCMLTVGDYVLSPTICVERKSISDLVSSFKDGRLFTQAETMFQHYRNPMLLIEFDQNKSFTLEPFADLSGSMSSVSATNVSSDLQSKLVLLTLAFPKLRIIWSSSPYQTAEIFESLKTQEAEPDPIAAVRAGLDKDARAEDQVFNQEPQDMLAVVPGVTPQNIKNIIIKTENVKEVANMTPEELAPLVGKAAGRAIHAFFDRNVMDEEDY
binding [1]: no binding
binding [2]: binds
binding [3]: binds

B2: Beauveria bassiana Rad10 (protein, UniProt J4UQI9 1-392)
chain: MADEYGADDALLAAMAAADSIPVPRRPVQQQPRPQKIQQPTPQRLDKAPPAASGSGGKVVQPTPQSLPQRQGASNILVSPRQRGNPVLTHLKSMPWEYSDIPADYVLGTTTCLLFLSLKYHRLHPEYVYTRIRNLQGKYNLRILLTMIDIPNHEDPLRELSKTSMVNNVTIVCCWSAAEAARYLELYKAYEHASFDAIRGKQSSSYAERLVDFVTVPRSLNKSDAVALVANFGSLKNAINADAEQLGMLSGWGGVKVKRWSAAIEEPFRAKNASKRILPTGDAAAVAALAEPDAANRGSRLQDAVPLSRVPLRDMPAASAAIEATPEAGQPVNSGKQFQFRGDTDDEDDELEAAATTTSKTAEAASKRAEFQAGQAEELSDGIAAALAKLRK
binding [1]: no binding
binding [2]: binds
binding [3]: binds

Source: publication PMC9692854
